In PubChem BioAssay AID488969 (Vanderbilt High Throughput Screening Facility, 2010):
Over roughly 110,000 compounds, “z-score” has its median near -0.1; the highest 2% begin near 2. Some of the results follow. The source made the active and inactive calls.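 How the source made its calls: active means z-score in the third read window above 3 or below -3; inactive means the rest.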

Target: Metabotropic glutamate receptor 8 (Rattus norvegicus) (UniProt P70579)
Experiment: rat mGluR8 modulators via GIRK flux, primary screen, cell-based, thallium flux, HTS (AID 488969)
Conditions: HEK293 rat mGluR8, GIRK (G protein-gated inwardly rectifying potassium channel) thallium flux, FluoZin2; at 10 µM; stronger effect = higher value; submaximal glutamate (EC20) added with thallium

UniProt P70579, sequence (P70579 whole entry, looked up): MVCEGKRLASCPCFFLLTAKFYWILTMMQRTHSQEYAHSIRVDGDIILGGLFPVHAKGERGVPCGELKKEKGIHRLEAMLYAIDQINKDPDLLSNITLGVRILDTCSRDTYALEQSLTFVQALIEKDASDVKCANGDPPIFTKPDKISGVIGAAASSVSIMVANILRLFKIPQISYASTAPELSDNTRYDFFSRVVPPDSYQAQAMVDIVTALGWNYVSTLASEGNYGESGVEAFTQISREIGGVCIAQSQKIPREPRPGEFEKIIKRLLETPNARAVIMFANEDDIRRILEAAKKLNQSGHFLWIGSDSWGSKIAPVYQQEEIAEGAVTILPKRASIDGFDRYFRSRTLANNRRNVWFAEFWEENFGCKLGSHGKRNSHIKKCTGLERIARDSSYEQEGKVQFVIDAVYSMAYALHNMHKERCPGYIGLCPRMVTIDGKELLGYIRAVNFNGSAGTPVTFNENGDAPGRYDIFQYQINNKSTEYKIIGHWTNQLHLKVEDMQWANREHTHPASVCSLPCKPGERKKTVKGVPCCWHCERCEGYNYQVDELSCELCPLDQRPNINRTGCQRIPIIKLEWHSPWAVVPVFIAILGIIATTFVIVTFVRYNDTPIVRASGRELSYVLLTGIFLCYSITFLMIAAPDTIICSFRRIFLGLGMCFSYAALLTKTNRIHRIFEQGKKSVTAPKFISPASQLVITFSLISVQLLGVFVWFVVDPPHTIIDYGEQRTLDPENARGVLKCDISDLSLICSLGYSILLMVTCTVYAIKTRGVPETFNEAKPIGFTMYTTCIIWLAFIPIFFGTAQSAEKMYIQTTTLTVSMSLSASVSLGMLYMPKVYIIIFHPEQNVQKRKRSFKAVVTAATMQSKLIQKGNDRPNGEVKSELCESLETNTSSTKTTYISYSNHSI

Row | Structure (SMILES) | z-score
1 | O=C(NCCCCNC(=O)c1c(F)c(F)c(F)c(F)c1F)c1c(F)c(F)c(F)c(F)c1F | -0.0446
2 | COc1ccccc1-n1c(=O)[nH]c2c(C(N)=O)nc(CC(C)C)nc21 | 0.621
3 | CC(C)=CCC(C)(C)C1OCCN1C(=O)c1ccccc1 (stereo not given) | -0.122
4 | S=c1[nH]nc(-c2ccco2)n1/N=C/C=C/c1ccco1 | -0.366
5 | COc1ccc(CN2C(=O)c3cccnc3C2Nc2cc(Cl)c(OC)cc2OC)cc1 (stereo not given) | 0.435
6 | CCNC1=C(Cl)C(=O)c2ccccc2C1=O | 1.01
7 | COc1ccccc1-n1c(SCC(=O)N2CCCCC2)nnc1-c1ccccc1O | -0.514
8 | CCCCS(=O)(=O)NC1=NCN(CCOC(=O)c2ccccc2)CN1 | -0.135
9 | CC(C)CCOCC1CC2(CC(C)(c3csc(N)n3)OC2=O)C(=O)O1 (stereo not given) | 0.393
10 | Cc1ccc(-c2ccc(=O)n(CCC(=O)NCc3ccccn3)n2)cc1 | -0.554
11 | Cc1cc(C(C)(C)C)ccc1OCCCCN1CCCC1 | 0.298
12 | CCn1c(=O)n(CC(=O)N2CC(C)CC(C)C2)c(=O)c2ccccc21 (stereo not given) | -0.15
13 | CCn1c(SCc2ccc(C(=O)Nc3nccs3)cc2)nnc1-c1ccc(N)cc1 | 1.08
14 | COC(=O)c1ccc(CSc2ccc3nnc(-c4cccc(F)c4)n3n2)o1 | -0.901
15 | COc1ccc(OC)c(-n2nnnc2SCC(=O)O)c1 | 0.608
16 | O=C(CCC(NC(=O)OCc1ccccc1)C(=O)OCC(=O)N1CCCCC1)OCC(=O)N1CCCCC1 (stereo not given) | 0.254
17 | O=C(Nc1nc(-c2ccccn2)cs1)c1ccc(Br)s1 | active: 12.3
18 | CC1(C(=O)O)CC(C)(C(=O)O)CC(C)(C(=O)O)C1 (stereo not given) | 0.139
19 | CN(C)S(=O)(=O)N1CCN(c2cc(Cl)ccc2Cl)CC1 | 0.268
20 | COCCNC(=O)NC(=O)COC(=O)Cc1ccc2c(c1)OCCO2 | 0.0261
21 | C/C(=N\OCC(=O)NC12CC3CC(CC(C3)C1)C2)c1cc2ccccc2o1 | 0.0142
22 | CCCC/C(O)=C1\C(=O)CC(C)(C)CC1=Nc1ccc(OC)cc1 | -1.72

Row | Structure (SMILES) | z-score
23 | CC(=O)N1CCN(CC(=O)Nc2ccccc2Sc2ccccc2)CC1 | 1.16
24 | O=C(CNS(=O)(=O)c1ccc(Br)s1)Nc1ccc2c(c1)OCCO2 | 0.264
25 | CC(/C=C/c1ccccc1)=N\NC(=O)C1CC1(C)c1ccccc1 (stereo not given) | 0.5
26 | Oc1c(Cl)cc(Cl)c2c1NCCC2 | active: 5.54
27 | Nc1nc(SCC(=O)NCCC(c2ccccc2)c2ccccc2)n[nH]1 | -0.272
28 | CCc1c(O)nc(SC2CC(=O)N(c3ccccc3)C2=O)[nH]c1=O (stereo not given) | -0.148
29 | COCCn1c(C)cc(C(=O)CSc2nncn2-c2ccccc2)c1C | 1.04
30 | O=C(CSCc1nc2ccccc2[nH]1)Nc1ccc(Oc2ccccc2)cc1 | -0.12
31 | c1ccc(-c2cc(CSc3nc4ccccc4[nH]3)on2)cc1 | 0.11
32 | Cc1[nH]c2ccccc2c1/C=N/NC(=O)CNC(=O)c1ccc2c(c1)OCO2 | 0.371
33 | COc1ccc(S(=O)(=O)NCc2csc(C)n2)cc1 | -0.594
34 | CCC(=O)Nc1ccccc1-c1nnn(CC(=O)N2c3ccccc3CC2C)n1 (stereo not given) | -1.96
35 | Cc1[nH]c2ccccc2c1C(=O)C(=O)N1CCCc2ccccc21 | 0.143
36 | Cc1sc2ncnc(Sc3nc4ccccc4s3)c2c1C | 0.269
37 | CCC(C(=O)Nc1ccccc1C(=O)N1CCOCC1)N1C(=O)c2ccccc2C1=O (stereo not given) | 0.202
38 | COc1ccc(NC(=S)Nc2ccc3nc(C)c(C)nc3c2)cc1 | -0.104
39 | Cc1cc(C)cc(OCC(=O)OCC(=O)NCc2cccs2)c1 | -0.709
40 | Cc1ccc(C2=CSC3=NS(=O)(=O)CCN23)cc1C | 0.215
41 | OC(COc1ccc2c(c1)CCC2)Cn1cnc2ccccc21 (stereo not given) | 0.6
42 | Cc1nc2ccc(-n3ccc(=O)cc3)cc2s1 | 0.24
43 | O=C(Nc1ccc([N+](=O)[O-])cc1)Nc1nc(-c2ccc(Cl)s2)cs1 | -0.228
44 | O=C(CNC(=O)C1COc2ccccc2O1)N/N=C/c1ccc(O)cc1O (stereo not given) | 0.15

Row | Structure (SMILES) | z-score
45 | CCOCCCNS(=O)(=O)c1ccc2c(c1)oc(=O)n2CC(=O)OCC | 0.0519
46 | COc1ccc(CCNC(=O)NC23CC4CC(CC(C4)C2)C3)cc1OC | -0.338
47 | O=C(Cn1cnc2scc(-c3ccc(F)cc3)c2c1=O)N1CCOCC1 | 0.204
48 | CN1C(=O)/C(=N/OC(=O)c2ccccc2)c2ccccc21 | -0.405
49 | COc1ccccc1NC(=O)C/C(N)=N/O | -0.207
50 | O=C(c1cc2sccc2n1Cc1ccccc1)N1CCN(c2nc3ccccc3s2)CC1 | 0.0366
51 | Cc1ccc(/C=C/C(=O)O)cc1S(=O)(=O)N(C)CCO | 0.702
52 | CCc1c(C(=O)N/N=C/c2ccc(C)o2)csc1C | -1.55
53 | COc1ccc(OC)c(NC(=O)c2sc3nc(Cc4ccccc4)cc(C(F)(F)F)c3c2N)c1 | -0.894
54 | COc1ccc(C2NC(=O)NC(C)=C2C(=O)OCc2ccc3c(c2)OCO3)cc1OC (stereo not given) | -0.256
55 | COc1ccc(OCCNC(=O)c2cccc(Oc3ccc(C(F)(F)F)cc3[N+](=O)[O-])c2)cc1 | -0.158
56 | Cc1ccc(NC(=O)c2ccccc2CCc2ccccc2)c(C)c1 | -0.313
57 | CC(=O)Nc1c(NCC(C)C)c2ccccc2oc1=O | -0.00889
58 | O=C(CCCn1c(=S)[nH]c2cc3c(cc2c1=O)OCO3)N1CCN(c2ccc(F)cc2)CC1 | -0.237
59 | CCOc1ccc(N=c2scc(-c3ccc(OC)cc3)n2CCO)cc1 | -0.113
60 | COc1cccc(/C=N/NC(=O)c2cc(-c3cccn3C)n[nH]2)c1 | -0.0314
61 | COc1cc(NC(=O)NCCN2CCN(c3ccc(Cl)cc3)CC2)ccc1C | 0.588
62 | CC1CC(C)CN(C(=O)COC(=O)CCc2nc3ccccc3c(=O)[nH]2)C1 (stereo not given) | -0.21
63 | CCOc1ccc(N2C(=O)/C(=C/c3cccs3)N(C)C2=S)cc1 | -0.138
64 | CC(C(=O)Nc1sc2c(c1C(=O)NCC1CCCO1)CCC2)N1C(=O)c2ccccc2C1=O (stereo not given) | -1
65 | O=C(NNC(=O)C1CCCO1)c1ccc(Br)cc1 (stereo not given) | -0.0366
66 | Cc1cc(NC(=O)COc2ccc(Cl)cc2Cl)n(-c2ccccc2)n1 | active: 12.2

Row | Structure (SMILES) | z-score
67 | COc1cc(C(=O)Nc2cc(Cl)ccc2C)c(-n2cnnn2)cc1OC | 0.269
68 | O=C1Nc2ccccc2C12Nc1ccccc1S2 (stereo not given) | -0.475
69 | COc1ccc(/C=N\NC(=O)c2nn(C)cc2Cl)cc1CN1CCOCC1 | -0.182
70 | COc1ccc(S(=O)(=O)Nc2ccc(F)cc2)c(C)c1C | 0.12
71 | CSc1nc(Cc2ccc(Cl)cc2)nc2ccccc12 | 0.221
72 | O=C(Nc1ccc(Cl)c(Cl)c1)OCc1cnc(Cl)s1 | -0.164
73 | CCCn1nc(C(=O)Nc2ccc(S(=O)(=O)Nc3nccs3)cc2)c2ccccc2c1=O | -0.771
74 | O=C1CC(N2CCN(Cc3ccc4c(c3)OCO4)CC2)C(=O)N1c1ccccc1 (stereo not given) | -0.354
75 | CCOc1ccc(S(=O)(=O)N(C(=O)c2ccco2)c2cc3sc(=O)oc3c3ccccc23)cc1 | -0.337
76 | CC(C)CNC(=O)CC(NCC(C)C)C(=O)O (stereo not given) | 0.0969
77 | O=C(C(Cl)Cl)N1c2ccccc2OCC1c1ccccc1 (stereo not given) | -0.649
78 | CCCn1c(SCC(=O)NCc2cccs2)nc2c1c(=O)n(C)c(=O)n2C | -0.364
79 | Nc1nnc(SCC(=O)N2CCN(c3ccccc3)CC2)s1 | 0.237
80 | O=C(Nc1ccc(S(=O)(=O)N2CCOCC2)cc1)c1cccs1 | -0.128
81 | CNS(=O)(=O)c1ccc(NC(=O)C(CCSC)NC(N)=O)cc1 (stereo not given) | -0.34
82 | CC1=[N+](C)N(c2ccccc2)C(=O)C1N=Cc1ccccc1Cl (stereo not given) | 0.808
83 | CCCOc1ccc(C2=NNC(=O)CC2)cc1 | -0.383
84 | CC(=O)C(/C=N/c1cc(-c2ccc(C)cc2)nn1-c1ccccc1)=C(\C)O | -0.251
85 | CCC(N1CCOC1=O)S(=O)(=O)c1ccc(C)cc1 (stereo not given) | -0.148
86 | CN(C)c1ccc(NC2=C([N+](=O)[O-])CS(=O)(=O)C2)cc1 | -0.364
87 | O=C(Cn1nnc(-c2ccc(S(=O)(=O)N3CCCC3)cc2)n1)NCC1CCCO1 (stereo not given) | -0.371
88 | O=C(CNC(=O)c1ccco1)OCC(=O)c1ccc2c(c1)CCCC2 | -0.0785

Row | Structure (SMILES) | z-score
89 | Cc1ccc(C(=O)OCc2ccc3c(c2)OCO3)cc1S(=O)(=O)N1CCCCC1 | -0.0379
90 | Cc1nnc(SCC(=O)N2c3ccccc3C(C)(c3ccccc3)CC2(C)C)s1 (stereo not given) | 0.611
91 | Cc1cc(=O)[nH]c(SCC2(O)C3CC4CC(C3)CC2C4)n1 (stereo not given) | -0.0822
92 | O=C(Cn1ccsc1=NC(=O)C(F)(F)F)c1ccccc1 | -0.0946
93 | CCC(C)Sc1nc2c(cnn2-c2ccc(C)c(C)c2)c(=O)[nH]1 (stereo not given) | 0.365
94 | COc1ccc(C(=O)CSc2nnc(CNC(=O)c3ccc(OC)cc3)n2C)cc1 | 0.0342
95 | CCC(=O)Nc1nnc(SCC(=O)N2c3ccccc3CC2C)s1 (stereo not given) | -0.402
96 | Cc1ccc(C(=O)N(c2c(C)n(C)n(-c3ccccc3)c2=O)C(C)C)cc1 | -0.285
97 | COc1cc2c(C#N)c(N3CCCCC3)nc(N)c2c(N)n1 | 0.666
98 | CC(=O)Nc1ccc(C(=O)CSc2nnc(Cc3ccccc3)o2)cc1 | 0.607
99 | Cc1cc(C)nc(SCc2ccc(C(=O)N/N=C3\CC(C)CC(C)(C)C3)cc2)n1 (stereo not given) | -0.372
100 | CNC(=O)CCCCCNS(=O)(=O)c1ccc(C)cc1 | 0.0156
101 | O=C(O)CCC(=O)N1CCc2cc(S(=O)(=O)N3CCC(Cc4ccccc4)CC3)ccc21 | -0.373
102 | COc1ccc(C(C)NC(=O)c2ccc(Cl)cc2)cc1OC (stereo not given) | -0.153
103 | O=C(O)[C@H](CO)Nc1ncnc2sc3c(c12)CCC3 | -0.0389
104 | Cc1c(NC(=O)/C(=C\c2ccccc2)NC(=O)c2ccccc2)c(=O)n(-c2ccccc2)n1C | -0.0434
105 | COc1ccccc1-c1noc(-c2ccccc2C(=O)Nc2cccnc2)n1 | 0.337
106 | CC(=O)N/C(=C\c1ccc(F)cc1)C(=O)OC(C)C | 0.09
107 | CCOC(=O)CSc1ccc2nnc(-c3ccncc3)n2n1 | 0.0256
108 | O=C(N/N=C/c1ccc(OC(F)F)cc1)c1ccc(CSc2nc3ccccc3[nH]2)cc1 | -0.217
109 | O=C(Nc1ccccc1)O/N=C(\c1ccccc1)c1ccccn1 | -0.139
110 | CCOC(=O)c1c(/N=C/c2ccc(O)cc2O)sc2c1CCC2 | -0.175
